Measurements reported in PubChem BioAssay AID624417 (National Center for Advancing Translational Sciences (NCATS), 2012).
The campaign covered roughly 410,000 compounds. About 6,400 (1.6%) were called active. This list was built around the results that the source calls inconclusive (neither active nor inactive); the mix of calls is not that of the screen. Calls follow the shape of the dose curve; as a rule, active = well fitted inhibition curve with a large enough effect; inconclusive = small, poorly fitted or top-dose-only effect; inactive = no such curve, though single readings can be large or run the other way. Potencies of inconclusive entries are doubtful fits and often do not repeat.

target: Glucagon-like peptide 1 receptor (Homo sapiens) (UniProt P43220); assay: qHTS of GLP-1 Receptor Inverse Agonists (Inhibition Mode); conditions: HEK293 GLP-1R CRE-luciferase, luminescence, 24 h, GLP-1R form is constitutively active; activity change, negative = inhibition: at 38.3 µM (top of the series) unless noted; also: nearly all actives have a fitted effect of over 55% in size
Outline: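 Inverse agonism was detected as reduced cAMP-driven luciferase luminescence after 24 h compound treatment. The cells were HEK293 clones expressing constitutively active human GLP-1R with the reporter. Reporter-only and GPR119 cell lines served as counterscreen controls.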
% is scaled to controls: 0 for no effect and ±100 for the full control effect; potency is read from the fitted curve at half-maximal effect; tags tell the direction and shape of the fitted curve.

Chain of UniProt P43220 (P43220 whole entry, looked up): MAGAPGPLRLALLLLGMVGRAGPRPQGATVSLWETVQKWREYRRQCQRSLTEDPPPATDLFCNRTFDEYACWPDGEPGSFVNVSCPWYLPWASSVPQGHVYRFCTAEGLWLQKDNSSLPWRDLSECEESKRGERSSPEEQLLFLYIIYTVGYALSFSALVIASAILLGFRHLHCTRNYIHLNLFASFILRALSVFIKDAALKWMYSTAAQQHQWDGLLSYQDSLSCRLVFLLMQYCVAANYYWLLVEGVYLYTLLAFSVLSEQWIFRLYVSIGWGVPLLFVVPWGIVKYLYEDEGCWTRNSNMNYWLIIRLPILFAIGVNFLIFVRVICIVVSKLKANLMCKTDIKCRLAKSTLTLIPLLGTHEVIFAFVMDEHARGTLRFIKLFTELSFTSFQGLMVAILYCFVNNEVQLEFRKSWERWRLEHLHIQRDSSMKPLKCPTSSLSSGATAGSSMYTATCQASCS

Potency, inconclusive:
Cc1cc(/C=N/NC(=O)c2nn(C)cc2Cl)c(C)n1-c1cccc(Br)c1 25.1 µM [inhibitor, partial curve, poor fit]
C=CCn1c(SCc2ccc(Br)cc2F)nc2cc(C(=O)O)ccc2c1=O 11.2 µM [inhibitor, single point]
COc1ccc(CN2C(=O)C(CC(=O)NCC3CCCCC3)CC(C(=O)N(C(C)C)C(C)C)=C2C)cc1 (stereo not given) 11.2 µM [inhibitor, single point]
COC(=O)c1ccc(C(C(=O)NC2CCCCC2)N(Cc2ccc(F)cc2)C(=O)Cc2cccs2)cc1 (stereo not given) 28.2 µM [inhibitor, single point]
O=C(NCCCN1CCOCC1)c1cc(Cl)ccc1OCc1ccccc1 28.2 µM [inhibitor, single point]
O=C(NCc1ccc(F)cc1)c1cc(C2CCCCN2S(=O)(=O)c2cccc3cccnc23)on1 (stereo not given) 5.01 µM [inhibitor, partial curve, poor fit]
CC1CCN(Cc2cc(=O)oc3ccc4ccccc4c23)CC1 17.8 µM [inhibitor, single point]
O=C(CNc1ccccc1F)Nc1cccc(S(=O)(=O)N2CCCCC2)c1 10 µM [inhibitor, partial curve, poor fit]
O=C(NC(=S)N1CCN(Cc2ccc3c(c2)OCO3)CC1)c1cccc(Br)c1 17.8 µM [inhibitor, single point]
Cc1cccc(C)c1N=Cc1c(O)n(-c2nccs2)c(=O)c2ccccc12 31.6 µM [inhibitor, partial curve, poor fit]
Cc1cc(Cl)ccc1OCC(O)CNCCc1ccc(S(N)(=O)=O)cc1 (stereo not given) 3.98 µM [inhibitor, partial curve, poor fit]
CCCCn1c2c(c(=O)n(C)c1=O)C(c1ccc(OC)cc1)N1CCCCCC1=N2 (stereo not given) 28.2 µM [inhibitor, single point]
CS(=O)(=O)c1ncc(N(Cc2ccco2)Cc2cccs2)c(C(=O)Nc2ccccc2F)n1 28.2 µM [inhibitor, single point]
CC(C)(C)OC(=O)N1CCC(c2nnc(SCc3ccccc3Cl)o2)CC1 8.91 µM [inhibitor, partial curve, poor fit]
OCCN(Cc1ccccc1)C(=S)Nc1ccc(F)cc1 4.47 µM [inhibitor, partial curve, poor fit]
C[C@H](CO)N1C[C@H](C)[C@@H](CN(C)Cc2ccc(Cl)c(Cl)c2)Oc2c(NC(=O)CCC(F)(F)F)cccc2C1=O 28.2 µM [inhibitor, single point]
CCc1c(C)sc2c1CCN(C(=O)Nc1ccccc1Cl)C2c1ccc(OC)cc1 (stereo not given) 10 µM [inhibitor, partial curve, poor fit]
O=C(NCC(c1ccco1)N1CCc2ccccc2C1)c1ccccc1 (stereo not given) 5.01 µM [inhibitor, partial curve, poor fit]
CCc1ccc2c(c1)C1(NN=C(c3ccccc3)S1)C(=O)N2 (stereo not given) 2.82 µM [inhibitor, full curve, poor fit]
CC1(Br)C(Sc2ccccc2[N+](=O)[O-])=Nc2ccccc21 (stereo not given) 7.08 µM [inhibitor, partial curve]
O=C(N/C(=C\c1ccc(Br)cc1)C(=O)N1CCCC1)c1cccs1 28.2 µM [inhibitor, single point]
CNC(=S)N1CCN(c2ccc(Cl)c(Cl)c2)CC1 28.2 µM [inhibitor, single point]
O=[N+]([O-])c1ccc(C(=S)N2CCN(Cc3ccccc3)CC2)cc1 14.1 µM [inhibitor, single point]
CN(C(=O)c1ccccc1C(=O)OCC(=O)Nc1cccc(Br)c1)c1ccccc1 28.2 µM [inhibitor, single point]
Cc1cc(-n2c(SCc3ccccc3F)nc3[nH]ncc3c2=O)ccc1Cl 31.6 µM [inhibitor, single point]
O=C(NC1CCCC1)c1cc2cc(Br)ccc2o1 20 µM [inhibitor, single point]
CCOc1ccc(NC(=O)CN(C)C(=O)CCc2ccccc2Cl)cc1OCC 10 µM [inhibitor, partial curve, poor fit]
CCC(CO)[n+]1c(C)cc(/C=C2\Sc3ccccc3N2Cc2ccccc2)cc1C (stereo not given) 22.4 µM [inhibitor, single point]
Cn1cc(CCC(=O)NCc2cccc(Cl)c2)c2ccccc21 7.94 µM [inhibitor, partial curve, poor fit]

Potency, active:
COc1ccc(S(=O)(=O)Nc2cc(Cl)ccc2OC)cc1 1.41 µM
CC(C)c1ccc(-c2nn(-c3ccccc3)cc2C2C(C#N)=C(N)OC3=C2C(=O)CC(C)(C)C3)cc1 (stereo not given) 12.6 µM

Activity change, negative = inhibition, inactive:
O=C(Oc1cc(=O)oc2c1c(=O)n1c3c(cccc23)CC1)c1ccc(F)cc1 2.43%
CC1CCc2onc(C(=O)N3CCN(c4ccc(Cl)cc4)CC3)c2C1 (stereo not given) -4.32%
O=C(COc1ccc([N+](=O)[O-])cc1)Nc1cc(S(=O)(=O)N2CCCCC2)ccc1N1CCCCC1 -10.5%
COc1ccc(CNC(=S)NCc2ccc(F)cc2)cc1OC -18.8%
COc1ccc(Cl)cc1NC(=O)C(C)n1c(=O)cc(C(F)(F)F)c2c(C)nn(C)c21 (stereo not given) 15.7%
CC1CN(C(=O)COC(=O)c2cncc(Br)c2)CC(C)O1 (stereo not given) -2.24%
Cc1ccc(-c2noc(-c3ccc(NC4CCCC4)c([N+](=O)[O-])c3)n2)cc1 -3.88%
COC(=O)c1ccc2nc(-c3ccc(F)cc3)c(Cc3ccsc3)n2c1 22.3%
COCOCCn1cc(CN2CCS(=O)(=O)N(Cc3ccc(-c4cccc(N(C)C)c4)cc3)C(CC(C)C)C2=O)nn1 (stereo not given) 3.48%
